Measured values: PMC4336329 (PLoS ONE, 2015)
Hit rate of the full screen: of about 310,000 compounds, about 14,000 (4.5%) showed an effect of 50% or more. Effects have a minus sign here. The list shows a part of the results.

Target: human ether-à-go-go-related gene (hERG) potassium channel (human, UniProt Q12809)
Assay: primary screen, population patch clamp on CHO cells stably expressing hERG
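Also: peak tail current of the secondary pulse compared with the same well before compound.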

Sequence of human ether-à-go-go-related gene (hERG) potassium channel (Q12809 whole entry, looked up): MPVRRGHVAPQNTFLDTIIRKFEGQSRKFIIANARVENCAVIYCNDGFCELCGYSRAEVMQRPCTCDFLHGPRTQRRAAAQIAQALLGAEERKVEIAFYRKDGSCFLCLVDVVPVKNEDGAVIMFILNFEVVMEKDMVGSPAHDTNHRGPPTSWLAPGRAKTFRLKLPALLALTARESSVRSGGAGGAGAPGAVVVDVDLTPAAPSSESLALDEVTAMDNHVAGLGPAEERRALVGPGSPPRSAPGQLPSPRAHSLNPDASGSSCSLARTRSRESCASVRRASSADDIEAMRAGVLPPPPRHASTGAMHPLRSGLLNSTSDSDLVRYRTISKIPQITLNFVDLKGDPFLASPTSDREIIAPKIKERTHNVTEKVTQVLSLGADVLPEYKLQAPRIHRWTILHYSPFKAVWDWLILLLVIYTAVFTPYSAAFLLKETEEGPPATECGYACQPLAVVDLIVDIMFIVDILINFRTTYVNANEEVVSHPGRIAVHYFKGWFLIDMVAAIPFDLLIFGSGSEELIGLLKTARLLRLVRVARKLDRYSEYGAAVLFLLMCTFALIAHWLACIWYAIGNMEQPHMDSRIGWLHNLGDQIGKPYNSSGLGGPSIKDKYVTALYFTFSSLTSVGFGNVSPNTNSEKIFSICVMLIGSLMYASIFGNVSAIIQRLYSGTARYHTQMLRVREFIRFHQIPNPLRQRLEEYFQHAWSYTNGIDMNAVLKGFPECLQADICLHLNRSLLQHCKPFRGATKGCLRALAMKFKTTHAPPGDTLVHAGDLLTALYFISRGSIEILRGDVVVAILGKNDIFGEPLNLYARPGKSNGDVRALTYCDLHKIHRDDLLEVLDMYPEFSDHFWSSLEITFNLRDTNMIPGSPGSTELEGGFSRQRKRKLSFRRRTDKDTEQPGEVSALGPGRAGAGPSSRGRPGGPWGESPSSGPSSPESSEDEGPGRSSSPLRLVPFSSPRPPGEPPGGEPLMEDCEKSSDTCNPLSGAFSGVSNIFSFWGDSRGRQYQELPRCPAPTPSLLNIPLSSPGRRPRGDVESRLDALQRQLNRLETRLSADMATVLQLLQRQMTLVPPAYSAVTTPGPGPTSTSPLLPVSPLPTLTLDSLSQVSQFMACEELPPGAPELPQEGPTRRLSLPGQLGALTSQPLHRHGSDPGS

Compared with `O=C(Nc1cccc(F)c1)c1cccc(S(=O)(=O)N2CCOCC2)c1`, `Cc1ccc(NC(=O)c2cc(=O)[nH]c3ccc(S(=O)(=O)N4CCOCC4)cc23)cc1` is higher in “hERG current change (%, negative = inhibition) at 10uM” value: -18.9% for the first, 0.283% for the second.

First: CCCCc1n[nH]c(=S)n1Cc1ccc(C)cc1
Second: Cc1ccc(CN2CCN(Cc3cccc4nccnc34)CC2CCO)cc1 (stereo not drawn)
The “hERG current change (%, negative = inhibition) at 10uM” value of the first is higher: -3.67% for the first, -66.6% for the second.

First: CC(Sc1nc(C(C)(C)C)cc(-c2ccccc2)c1C#N)C(=O)Nc1ccccc1 (stereo not drawn)
Second: C[C@@H](C(=O)Nc1ccc2ccccc2c1)[C@@H]1C[C@@]1(C)[C@@H](N)c1ccccc1.Cl
The “hERG current change (%, negative = inhibition) at 10uM” value of the first is higher: 0.885% for the first, -1.94% for the second.

Compared with `CSCC(C)N1CCC(CCC(=O)NC2CC2)CC1` (stereo not drawn), `Cc1ccc(NC(=O)CCN2CCOCC2)cc1C` is higher in “hERG current change (%, negative = inhibition) at 10uM” value: -18.1% for the first, 14.1% for the second.

Compared with `Cn1c(COc2ccc(C(=O)O)cc2)nc2ccccc21`, `CC(=O)c1c(COC(=O)c2ccc(F)cc2)nc2ccccc2[n+]1[O-]` is lower in “hERG current change (%, negative = inhibition) at 10uM” value: 14.7% for the first, 10.6% for the second.

Compared with `O=C(Nc1ccccc1)Nc1cc([N+](=O)[O-])ccc1F`, `O=C(N/N=C/c1cccn1-c1cccc(C(=O)O)c1)Nc1ccccc1` is higher in “hERG current change (%, negative = inhibition) at 10uM” value: 1.93% for the first, 2.66% for the second.

Going from `O=C(Nc1ccc(F)cc1)N1CCn2c(nc3ccccc32)C1` to `CC(=O)Nc1ccc(NC(=O)Oc2ccccc2)cc1`, the “hERG current change (%, negative = inhibition) at 10uM” value rises from -17% to 17.3%.

Going from `Cc1ccc(-c2ccc(/C=N/c3ncn[nH]3)o2)cc1Cl` to `Clc1cccc(-c2ccc(/C=N/n3cnnc3)o2)c1`, the “hERG current change (%, negative = inhibition) at 10uM” value falls from 11.6% to -15.6%.

First: CCn1c(CNC(=O)c2ccco2)nnc1SCC(=O)c1ccc(OC)cc1
Second: COC(=O)c1ccccc1NC(=S)NC(=O)COc1ccc(C(C)C)cc1
The “hERG current change (%, negative = inhibition) at 10uM” value of the first is lower: -17.1% for the first, -1.66% for the second.

First: Cc1[nH]c2ccccc2c1C(Nc1nccs1)c1ccncc1 (stereo not drawn)
Second: Cn1nc2c3ccccc3n(Cc3ccccc3)c2nc1=S
The “hERG current change (%, negative = inhibition) at 10uM” value of the first is lower: -19.9% for the first, 14.1% for the second.

Compared with `O=C(NCc1ccccc1)c1ccc(CS(=O)(=O)Cc2ccc(F)cc2)o1`, `CN(Cc1ccccc1)c1ccc(C(CC(N)=O)NC(=O)Cc2ccc(Br)cc2)cc1[N+](=O)[O-]` (stereo not drawn) is higher in “hERG current change (%, negative = inhibition) at 10uM” value: 3.24% for the first, 10% for the second.

Going from `COc1ccc(Cl)cc1N(CC(=O)NC1CC1)S(=O)(=O)c1ccc(C)c([N+](=O)[O-])c1` to `COc1ccc(S(=O)(=O)NCc2ccc3c(c2)OCO3)cc1C(=O)O`, the “hERG current change (%, negative = inhibition) at 10uM” value rises from 11.9% to 22.5%.

Compared with `CCCn1c(=O)c(Br)cn(-c2ccccc2C)c1=O`, `CCc1ccccc1NC(=O)CCCN1C(=O)c2cccnc2C1=O` is lower in “hERG current change (%, negative = inhibition) at 10uM” value: 11.5% for the first, 7.97% for the second.

First: COc1ccc(/C=C/C(=O)OCC(=O)NC2CCCC2)c(OC)c1
Second: Cc1ccc(/C=C/C(=O)OCC(=O)NC(=O)NCc2ccco2)cc1
The “hERG current change (%, negative = inhibition) at 10uM” value of the first is lower: 1.22% for the first, 18.7% for the second.

Going from `Cc1noc(C)c1COc1ccc(C(=O)OCc2nnc(-c3ccc(Cl)cc3)o2)cc1` to `CCOC(=O)Cc1cc(-c2ccc(OC)cc2)nc2ccc3ccccc3c12`, the “hERG current change (%, negative = inhibition) at 10uM” value falls from 10.1% to -3.38%.

First: Cc1cc(C=C2C(=O)N(C)C(=S)N(C)C2=O)c(C)n1-c1cccnc1
Second: O=C(/C=C/c1cccs1)Nc1cccnc1
The “hERG current change (%, negative = inhibition) at 10uM” value of the first is higher: 0.86% for the first, -28.5% for the second.

First: O=C(NCC1CCCO1)c1ccc2c(c1)ncn2-c1cccc(F)c1 (stereo not drawn)
Second: Cc1cc(S(=O)(=O)NCc2ccccc2)ccc1OCC(=O)NCC1CCCO1 (stereo not drawn)
The “hERG current change (%, negative = inhibition) at 10uM” value of the first is lower: -10.2% for the first, -6.68% for the second.

Going from `CCc1ccc(O)c(CNCCNCc2cc(CC)ccc2O)c1` to `COc1cc(Cc2ccc(N)c(OC)c2)ccc1N`, the “hERG current change (%, negative = inhibition) at 10uM” value rises from -55.2% to 11.1%.

Going from `COC(=O)c1ccc(NC(=S)N2CCN(C)CC2)cc1` to `CC1CCCN(S(=O)(=O)c2ccc(NC(=O)CN3CCN(C)CC3)cc2)C1.Cl` (stereo not drawn), the “hERG current change (%, negative = inhibition) at 10uM” value falls from 3.76% to -17.8%.

First: C=C(C)COc1ccc2c(CC)cc(=O)oc2c1C
Second: CCOC(=O)Oc1ccc2oc(=O)cc(C)c2c1
The “hERG current change (%, negative = inhibition) at 10uM” value of the first is lower: 7.78% for the first, 15.9% for the second.

Going from `CCOC(=O)Cc1csc(NC(=O)COc2ccc3c(C)cc(=O)oc3c2)n1` to `CCC(=O)Nc1cc2[nH]c(=O)cc(C)c2cc1C`, the “hERG current change (%, negative = inhibition) at 10uM” value rises from -20.7% to 33.3%.

Going from `O=C(NCc1ccco1)c1cc(-c2ccccc2)c(N2CCOCC2)s1` to `Cc1c(C(=O)Nc2ccccc2)cc(-c2ccccc2)n1CCCN1CCOCC1`, the “hERG current change (%, negative = inhibition) at 10uM” value falls from -4.63% to -22.1%.

Going from `CCOC(=O)c1c(N)sc2c(OCC)c(Br)ccc12` to `CCCCn1c(C)c(C(=O)OCC)c2c(CN3CCCC3)c(O)ccc21`, the “hERG current change (%, negative = inhibition) at 10uM” value falls from 19.1% to -72%.

Compared with `O=C(CCn1c2c(c3ccccc31)CCCC2)NNC(=O)c1ccccc1C(=O)O`, `Cc1ccccc1CN1C(=O)/C(=C\c2ccc(C(=O)NCCN3CCOCC3)cc2)Sc2ccccc21` is lower in “hERG current change (%, negative = inhibition) at 10uM” value: 12.7% for the first, 1.97% for the second.

Going from `CCOC(=O)c1cccc(NC(=O)/C=C/c2ccc3c(c2)OCO3)c1` to `O=C(CC1NCCNC1=O)Nc1ccc2c(c1)OCCO2` (stereo not drawn), the “hERG current change (%, negative = inhibition) at 10uM” value rises from -2.84% to -1.54%.

Compared with `O=C(O)CCCNC(=O)c1cncc(O)c1`, `COc1cc(C(=O)N/N=C(\C)Cn2nc([N+](=O)[O-])cc2C)ccc1O` is lower in “hERG current change (%, negative = inhibition) at 10uM” value: -13.5% for the first, -21.1% for the second.

Going from `Cc1ccc(C)n1/N=C1/NC(=O)CS1` to `CCCc1nc2ccccc2c(=O)n1/N=C/c1ccc(O)cc1O`, the “hERG current change (%, negative = inhibition) at 10uM” value rises from -4.04% to 0.651%.

Going from `Cc1cc(N2CCOCC2)n2nc(C)c(-c3ccc(Cl)cc3)c2n1` to `COc1ccccc1/C=N\NC(=O)c1c(C)nc2ccc(Cl)cn12`, the “hERG current change (%, negative = inhibition) at 10uM” value falls from 8.58% to -12.8%.

Going from `CCN(CC(=O)Nc1ccccc1C(F)(F)F)C(=O)c1cc2c(s1)CCCCC2` to `Cc1cccc(C)c1NC1=NCCCCC1`, the “hERG current change (%, negative = inhibition) at 10uM” value rises from -24.3% to 14.8%.

First: Cc1nc(Nc2ccc(Cl)cc2)c(C#N)c(=O)[nH]1
Second: FC(F)(F)c1nnc(Nc2ccc(Cl)cc2)s1
The “hERG current change (%, negative = inhibition) at 10uM” value of the first is higher: 11.3% for the first, 9.02% for the second.

Compared with `CC(C)C(=O)NC(Nc1cccc2cccnc12)C(Cl)(Cl)Cl` (stereo not drawn), `CC(C)(C)c1csc(NC(=O)c2ccncc2)n1` is lower in “hERG current change (%, negative = inhibition) at 10uM” value: -17.8% for the first, -33.7% for the second.

First: CC(C)N1C(=O)CCC1C(=O)NCc1ccco1 (stereo not drawn)
Second: CC(C)CN(C(=O)COC(=O)Cn1cnc2ccccc2c1=O)C1CCS(=O)(=O)C1 (stereo not drawn)
The “hERG current change (%, negative = inhibition) at 10uM” value of the first is lower: -3.4% for the first, 21.2% for the second.

Compared with `COc1ccc(C2OCC3(CO2)SC(N)=NC3=O)cc1` (stereo not drawn), `COc1cc2sc(C)nc2c2sccc12` is higher in “hERG current change (%, negative = inhibition) at 10uM” value: -1.61% for the first, 2.95% for the second.

First: Cc1ccc(C(C)(c2ccc(N)cc2)c2ccc(N)cc2)cc1
Second: Cc1ccc(-n2c(O)c(C=NCc3ccccn3)c3ccccc3c2=O)cc1
The “hERG current change (%, negative = inhibition) at 10uM” value of the first is higher: -1.66% for the first, -3.79% for the second.

Compared with `CCN1CCN(C(=O)CCS(=O)(=O)c2cc3c(cc2Cl)NC(=O)CO3)CC1`, `COc1cc2[nH]c(=O)n(CCCCCC(=O)NCCCN3CCC(C)CC3)c(=O)c2cc1OC` is higher in “hERG current change (%, negative = inhibition) at 10uM” value: 11.7% for the first, 18.8% for the second.

Going from `COc1ccc(-c2cc(C(F)(F)F)nc(SCC(=O)N(C)Cc3cn(C)nc3C)n2)cc1OC` to `COc1ccccc1NC(=O)CSc1nnnn1C`, the “hERG current change (%, negative = inhibition) at 10uM” value rises from -36.2% to 10.1%.

Going from `O=c1c2c3c(sc2n(CCN2CCCCC2)c(=O)n1Cc1ccco1)CCCCC3` to `O=C(Nc1ccc(Cl)cc1)NC1(C(=O)NCCCN2CCOCC2)CCCCC1`, the “hERG current change (%, negative = inhibition) at 10uM” value rises from -69.1% to -0.834%.

Going from `Fc1cccc(NC(=S)NCc2ccc(Cl)cc2)c1` to `CCCNC(=S)Nc1ccc(Cl)cc1Cl`, the “hERG current change (%, negative = inhibition) at 10uM” value falls from 14.4% to 7.89%.

Going from `CSc1cccc(NC(=O)CCn2c(=O)c3cccn3c3cccnc32)c1` to `CCN(CC)S(=O)(=O)c1ccc2c(c1)nc(SCn1nnc3ccccc3c1=O)n2CC`, the “hERG current change (%, negative = inhibition) at 10uM” value rises from 7.74% to 21.1%.

Going from `Cc1ccc(NC(=O)CS(=O)CC(=O)NCC2CCCO2)cc1` (stereo not drawn) to `O=C(NCC(=O)N(CC1CCCO1)C(C(=O)NC1CCCC1)c1cccnc1)c1ccco1` (stereo not drawn), the “hERG current change (%, negative = inhibition) at 10uM” value rises from 12.7% to 22.4%.

Going from `CC(C)OC(=O)CSc1nc2cc3c(cc2cc1C#N)OCO3` to `COc1cc(OC)c(NC(=O)c2csc(C)c2)cc1Cl`, the “hERG current change (%, negative = inhibition) at 10uM” value falls from 18.1% to 14.2%.

Compared with `C/C(=N\NS(=O)(=O)c1ccc([N+](=O)[O-])cc1)c1ccc(NC(=O)c2ccco2)cc1`, `Cc1ccc(S(=O)(=O)NNC(=O)Nc2ccc(Cl)c(Cl)c2)cc1` is higher in “hERG current change (%, negative = inhibition) at 10uM” value: 5.33% for the first, 8.35% for the second.

Going from `Cc1c(CBr)[n+](=O)c2c(n1[O-])C(Br)CCC2Br` (stereo not drawn) to `COC(=O)c1c(NC(=O)CN2CCCC(C)C2)c2c(C)cccc2n1C` (stereo not drawn), the “hERG current change (%, negative = inhibition) at 10uM” value falls from 22.8% to -16.8%.

Going from `CCN=C1S/C(=C\c2cc(Cl)c(OC)c(OC)c2)C(=O)N1CC` to `COc1cc(C=O)ccc1OCCCOc1ccccc1[N+](=O)[O-]`, the “hERG current change (%, negative = inhibition) at 10uM” value falls from 13.4% to 7.71%.

Going from `CN1CCOc2cc(S(=O)(=O)NCc3ccc(S(N)(=O)=O)cc3)ccc21` to `C#CCOCCOCCOCCNc1nc(N2CCN(C(=O)CCCCCCCCCCNC(=O)[C@H](CCCCN)n3cc(CCO)nn3)CC2)nc(N2CCN(C(=O)CCCCCCCCCCNC(=O)[C@@H]([C@H](C)O)n3cc(C)nn3)CC2)n1`, the “hERG current change (%, negative = inhibition) at 10uM” value falls from 24.5% to 0.574%.
